These results are taken from publication PMC4203352.

Sequences of proteins named here, by UniProt entry; tags and fusion partners are left off. Residues count along the entry.
UniProt P07237, residues 18-508: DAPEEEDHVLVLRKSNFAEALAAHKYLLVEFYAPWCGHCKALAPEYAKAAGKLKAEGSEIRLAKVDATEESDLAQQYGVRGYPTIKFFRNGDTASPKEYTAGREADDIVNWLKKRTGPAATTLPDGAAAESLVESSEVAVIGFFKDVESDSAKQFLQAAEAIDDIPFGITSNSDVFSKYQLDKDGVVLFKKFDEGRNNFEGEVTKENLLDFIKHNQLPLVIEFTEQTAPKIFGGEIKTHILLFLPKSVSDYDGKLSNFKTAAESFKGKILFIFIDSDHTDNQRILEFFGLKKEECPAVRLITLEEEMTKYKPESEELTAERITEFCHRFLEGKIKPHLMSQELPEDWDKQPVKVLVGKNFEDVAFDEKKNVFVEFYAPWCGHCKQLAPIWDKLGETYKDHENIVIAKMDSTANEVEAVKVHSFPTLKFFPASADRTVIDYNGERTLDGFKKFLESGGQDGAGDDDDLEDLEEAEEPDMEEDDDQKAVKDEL
UniProt Q8NBS9, residues 33-432: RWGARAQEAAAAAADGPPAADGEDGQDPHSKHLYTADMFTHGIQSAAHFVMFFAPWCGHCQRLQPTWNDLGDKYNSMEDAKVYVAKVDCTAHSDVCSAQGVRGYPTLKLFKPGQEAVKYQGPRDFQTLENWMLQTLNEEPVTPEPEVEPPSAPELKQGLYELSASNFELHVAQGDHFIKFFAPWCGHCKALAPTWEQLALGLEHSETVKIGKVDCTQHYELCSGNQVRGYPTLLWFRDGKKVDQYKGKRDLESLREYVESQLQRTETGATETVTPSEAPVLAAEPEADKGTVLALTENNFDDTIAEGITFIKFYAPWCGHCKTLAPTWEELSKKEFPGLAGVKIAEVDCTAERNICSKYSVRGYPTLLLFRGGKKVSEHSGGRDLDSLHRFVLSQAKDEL

These are yes or no findings as the source states them, for the method shown. For some assays here: Binding seen in cells or lysates may run through a third protein. Some results given as binding are weak or reduced against the parent protein; the word gives no strength. For some assays here: Tags and fused reporters may be left off the sequences shown.

Experiment [1] has as its target T1, Txnip C247S mutant, N-terminal tandem Strep/FLAG tag (UniProt Q9H3M7).
T1 sequence: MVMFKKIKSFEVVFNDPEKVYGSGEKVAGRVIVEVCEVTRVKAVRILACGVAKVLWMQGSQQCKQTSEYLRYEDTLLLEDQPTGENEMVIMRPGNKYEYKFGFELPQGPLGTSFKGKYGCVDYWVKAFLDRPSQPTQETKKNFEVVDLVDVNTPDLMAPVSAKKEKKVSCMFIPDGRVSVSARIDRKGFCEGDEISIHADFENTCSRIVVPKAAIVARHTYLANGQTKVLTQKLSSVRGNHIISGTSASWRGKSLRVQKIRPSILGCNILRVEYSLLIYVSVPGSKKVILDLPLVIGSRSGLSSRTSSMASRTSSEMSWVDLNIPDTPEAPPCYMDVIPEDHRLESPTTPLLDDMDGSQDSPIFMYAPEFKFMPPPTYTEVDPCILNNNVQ
The experiment is described as follows: pull-down; HEK293TN cells transfected with Txnip or Txnip C247S only; Txnip held on Streptactin beads; endogenous PDIA6 detected by Western blot. Background: Immunoblotting shows a protein as a band on a membrane.

Experiment [2] addresses T2, Thioredoxin-interacting protein (Txnip), N-terminal tandem Strep/FLAG tag (UniProt Q9H3M7).
T2 sequence: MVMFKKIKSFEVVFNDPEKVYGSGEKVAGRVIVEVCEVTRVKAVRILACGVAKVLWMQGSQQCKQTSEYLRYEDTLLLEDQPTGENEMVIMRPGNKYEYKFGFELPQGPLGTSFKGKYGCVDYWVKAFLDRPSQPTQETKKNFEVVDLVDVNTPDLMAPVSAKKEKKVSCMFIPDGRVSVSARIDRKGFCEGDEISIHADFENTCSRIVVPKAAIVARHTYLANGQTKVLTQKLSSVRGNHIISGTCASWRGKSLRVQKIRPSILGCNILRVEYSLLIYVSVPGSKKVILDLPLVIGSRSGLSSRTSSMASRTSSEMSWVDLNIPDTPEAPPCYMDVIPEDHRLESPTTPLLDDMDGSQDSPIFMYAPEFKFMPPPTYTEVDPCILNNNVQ
The description is as above.

For experiment [3], the target named is PDI (protein disulfide isomerase), HA tag (UniProt P07237). Kind of experiment: pull-down; reverse pulldown: affinity chromatography of the PDIs from lysates of transfected HEK293TN cells, Txnip detected by Western blot.
The next experiment addresses T3, PDIA4, HA tag (UniProt P13667).
T3 sequence: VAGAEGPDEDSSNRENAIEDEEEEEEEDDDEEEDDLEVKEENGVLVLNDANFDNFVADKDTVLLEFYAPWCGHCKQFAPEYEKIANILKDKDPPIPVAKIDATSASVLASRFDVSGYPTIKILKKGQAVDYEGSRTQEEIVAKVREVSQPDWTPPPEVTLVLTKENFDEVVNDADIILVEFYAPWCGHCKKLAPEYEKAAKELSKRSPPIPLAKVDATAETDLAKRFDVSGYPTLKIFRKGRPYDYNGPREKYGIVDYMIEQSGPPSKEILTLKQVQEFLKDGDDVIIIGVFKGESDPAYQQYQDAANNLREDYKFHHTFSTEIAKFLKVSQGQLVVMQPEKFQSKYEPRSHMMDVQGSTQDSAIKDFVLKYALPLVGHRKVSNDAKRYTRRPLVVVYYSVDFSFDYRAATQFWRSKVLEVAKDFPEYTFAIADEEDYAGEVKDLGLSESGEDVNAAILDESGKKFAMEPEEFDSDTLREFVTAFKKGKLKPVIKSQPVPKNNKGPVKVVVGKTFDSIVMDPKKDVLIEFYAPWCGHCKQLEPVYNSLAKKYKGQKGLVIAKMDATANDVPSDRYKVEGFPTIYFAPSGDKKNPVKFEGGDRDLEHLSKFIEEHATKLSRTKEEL
Described as above.

In experiment [4] the target is T4, full-length PDIA6 (1-421), HA tag (UniProt Q15084).
T4 sequence: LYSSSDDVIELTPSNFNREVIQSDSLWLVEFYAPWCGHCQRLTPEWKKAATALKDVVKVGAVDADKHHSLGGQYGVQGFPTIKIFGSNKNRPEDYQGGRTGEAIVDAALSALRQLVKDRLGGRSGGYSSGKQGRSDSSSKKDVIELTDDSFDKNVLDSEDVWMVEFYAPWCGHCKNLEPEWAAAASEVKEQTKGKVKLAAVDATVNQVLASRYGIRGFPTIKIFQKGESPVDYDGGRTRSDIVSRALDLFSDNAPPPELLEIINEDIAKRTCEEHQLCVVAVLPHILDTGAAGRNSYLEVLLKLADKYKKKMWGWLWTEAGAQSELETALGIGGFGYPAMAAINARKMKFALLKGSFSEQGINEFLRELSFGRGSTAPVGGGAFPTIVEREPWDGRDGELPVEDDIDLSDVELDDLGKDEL
The experiment is described as above.

A further experiment deals with PDIA15, HA tag (UniProt Q8NBS9). Described as above.
The next experiment addresses T5, PDIA13, HA tag (UniProt Q96JJ7).
T5 sequence: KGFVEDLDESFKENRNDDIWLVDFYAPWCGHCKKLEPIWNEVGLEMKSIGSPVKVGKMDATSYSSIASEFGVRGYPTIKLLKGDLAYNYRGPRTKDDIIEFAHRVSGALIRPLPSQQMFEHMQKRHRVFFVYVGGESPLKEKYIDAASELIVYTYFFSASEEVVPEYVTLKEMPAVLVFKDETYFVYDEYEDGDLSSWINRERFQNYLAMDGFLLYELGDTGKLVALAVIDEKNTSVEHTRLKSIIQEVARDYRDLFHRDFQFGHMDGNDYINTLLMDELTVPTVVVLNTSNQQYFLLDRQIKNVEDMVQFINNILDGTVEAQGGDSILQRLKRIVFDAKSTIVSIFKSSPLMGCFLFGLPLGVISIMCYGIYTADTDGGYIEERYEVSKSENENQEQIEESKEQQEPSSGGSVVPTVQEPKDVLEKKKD
Described as above.

For experiment [5], the target named is PDI (in the NEM trapping experiment) (UniProt P07237). The experiment is described as follows: free sulfhydryl alkylation (NEM) trapping, non-reducing SDS-PAGE and Western blot; all free cysteine residues blocked with N-ethylmaleimide; non-reducing SDS-PAGE and Western blot of Txnip-PDI complexes.

B1: endogenous PDIA6 (enzyme, UniProt Q15084 20-440)
chain: LYSSSDDVIELTPSNFNREVIQSDSLWLVEFYAPWCGHCQRLTPEWKKAATALKDVVKVGAVDADKHHSLGGQYGVQGFPTIKIFGSNKNRPEDYQGGRTGEAIVDAALSALRQLVKDRLGGRSGGYSSGKQGRSDSSSKKDVIELTDDSFDKNVLDSEDVWMVEFYAPWCGHCKNLEPEWAAAASEVKEQTKGKVKLAAVDATVNQVLASRYGIRGFPTIKIFQKGESPVDYDGGRTRSDIVSRALDLFSDNAPPPELLEIINEDIAKRTCEEHQLCVVAVLPHILDTGAAGRNSYLEVLLKLADKYKKKMWGWLWTEAGAQSELETALGIGGFGYPAMAAINARKMKFALLKGSFSEQGINEFLRELSFGRGSTAPVGGGAFPTIVEREPWDGRDGELPVEDDIDLSDVELDDLGKDEL
B1: the binding result was “no binding” in experiment [1] and “binds” in experiment [2].

B2: Thioredoxin-interacting protein (Txnip), N-terminal tandem Strep/FLAG tag (protein, UniProt Q9H3M7 1-391)
chain: MVMFKKIKSFEVVFNDPEKVYGSGEKVAGRVIVEVCEVTRVKAVRILACGVAKVLWMQGSQQCKQTSEYLRYEDTLLLEDQPTGENEMVIMRPGNKYEYKFGFELPQGPLGTSFKGKYGCVDYWVKAFLDRPSQPTQETKKNFEVVDLVDVNTPDLMAPVSAKKEKKVSCMFIPDGRVSVSARIDRKGFCEGDEISIHADFENTCSRIVVPKAAIVARHTYLANGQTKVLTQKLSSVRGNHIISGTCASWRGKSLRVQKIRPSILGCNILRVEYSLLIYVSVPGSKKVILDLPLVIGSRSGLSSRTSSMASRTSSEMSWVDLNIPDTPEAPPCYMDVIPEDHRLESPTTPLLDDMDGSQDSPIFMYAPEFKFMPPPTYTEVDPCILNNNVQ
In the case of B2, the binding entry is listed as “binds” in experiment [3]; “binds” in the experiment with PDIA4, HA tag; “binds” in experiment [4]; “binds” in the experiment with PDIA15, HA tag; “binds” in the experiment with PDIA13, HA tag.

B3: Txnip (in the NEM trapping experiment) (protein, UniProt Q9H3M7 1-391)
chain: MVMFKKIKSFEVVFNDPEKVYGSGEKVAGRVIVEVCEVTRVKAVRILACGVAKVLWMQGSQQCKQTSEYLRYEDTLLLEDQPTGENEMVIMRPGNKYEYKFGFELPQGPLGTSFKGKYGCVDYWVKAFLDRPSQPTQETKKNFEVVDLVDVNTPDLMAPVSAKKEKKVSCMFIPDGRVSVSARIDRKGFCEGDEISIHADFENTCSRIVVPKAAIVARHTYLANGQTKVLTQKLSSVRGNHIISGTCASWRGKSLRVQKIRPSILGCNILRVEYSLLIYVSVPGSKKVILDLPLVIGSRSGLSSRTSSMASRTSSEMSWVDLNIPDTPEAPPCYMDVIPEDHRLESPTTPLLDDMDGSQDSPIFMYAPEFKFMPPPTYTEVDPCILNNNVQ
modifications: free cysteine residues blocked with N-ethylmaleimide (NEM)
Take B3: the binding result in experiment [5] was “binds”.
